Laboratory results: the supplement of paper PMC12355420
Structures can show the parent of a compound that is named as a salt. Some of the results follow. Rule as the data show it: active = 0.5 or less and inactive = the rest. Single values are uncertain, as repeats are few or missing.

How the values were obtained:
Settings in all cases: 50 µM; 24 h
[1] = system: HeLa VPS33A reporter cells; assay: relative cell viability (CellMask signal) vs DMSO (fraction of DMSO); higher = less cytotoxic;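 also: primary screen of an FDA-approved drug library in HeLa reporter cells in 96-well format, CellMask signal normalized to DMSO-treated wells set as 1, under 0.5 deemed highly cytotoxic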
[2] = system: HeLa VPS33A R498W KI + HA-SDC1-FLAG; assay: relative GAG core protein HA-SDC1 amount per cell number vs DMSO (fraction of DMSO); higher = more SDC1 (GAG core protein);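 also: HA-SDC1 level read out by In-Cell Western staining with an anti-HA antibody against the N-terminal tag, screening FDA-approved library drugs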
[3] = system: HeLa VPS33A KO + NLuc-VPS33A R498W; assay: relative mutant VPS33A R498W amount (NanoLuc luminescence) vs DMSO (fraction of DMSO); HeLa model of a glycosaminoglycan (GAG) storage disease; KI is knock-in and KO knock-out; SDC1 is syndecan 1; higher = higher mutant VPS33A level;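 also: screen of an FDA-approved drug library, NanoLuc luminescence read after lysing the treated cells, taken as a measure of mutant VPS33A protein stability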

Row | SMILES | relative cell viability [1] | relative GAG core protein HA-SDC1 amount per cell number [2] | relative mutant VPS33A R498W amount [3]
1 | O=C1CCc2cc(OCCCCc3nnnn3C3CCCCC3)ccc2N1 [Cilostazol] | 1.03 | inactive: 1.02 | 1.27
2 | COC(=O)[C@H]1[C@H]2C[C@@H]3c4[nH]c5cc(OC)ccc5c4CCN3C[C@H]2C[C@@H](OC(=O)c2cc(OC)c(OC)c(OC)c2)[C@@H]1OC [Reserpine] | 1.14 | inactive: 3.38 | 0.325
3 | CCCc1nc(C)c2c(=O)nc(-c3cc(S(=O)(=O)N4CCN(CC)CC4)ccc3OCC)[nH]n12 [Vardenafil HCl Trihydrate] | 0.793 | inactive: 0.895 | 0.532
4 | C[N+](C)(C)CC(O)CC(=O)[O-] (racemic) [DL-Carnitine HCl] | 1.29 | inactive: 0.629 | 0.983
5 | COc1ccccc1OCC(O)COC(N)=O (centres undefined) [Methyocarbamol] | 1.12 | inactive: 1.2 | 0.976
6 | C[C@H]1CNCCCN1S(=O)(=O)c1cccc2cncc(F)c12 | 1.12 | inactive: 0.808 | 0.493
7 | Cc1nc2n(c(=O)c1CCN1CCC(c3noc4cc(F)ccc34)CC1)CCCC2O (centres undefined) [Paliperidone] | 1.05 | inactive: 1.07 | 0.911
8 | CCn1cc(C(=O)O)c(=O)c2cc(F)c(N3CCN(C)CC3)cc21 [Pefloxacin Mesylate] | 0.98 | inactive: 0.977 | 1.06
9 | NS(=O)(=O)c1cc(C(=O)O)c(NCc2ccco2)cc1Cl [Furosemide] | 1.2 | inactive: 1.16 | 0.817
10 | N=C(N)NC(=O)c1nc(Cl)c(N)nc1N [Amiloride HCl dihydrate] | 1.1 | inactive: 0.81 | 1.32
11 | C=C1c2cccc(O)c2C(O)=C2C(=O)[C@]3(O)C(O)=C(C(N)=O)C(=O)[C@@H](N(C)C)[C@@H]3[C@@H](O)[C@H]12 [Methacycline HCl] | 0.87 | inactive: 0.725 | 0.342
12 | Cc1ccsc1C(=CCCN1CCC[C@@H](C(=O)O)C1)c1sccc1C [Tiagabine hydrochloride] | 0.989 | inactive: 0.674 | 1.02
13 | Cc1nc(NC(=O)N2CCC[C@H]2C(N)=O)sc1-c1ccnc(C(C)(C)C(F)(F)F)c1 | 1.23 | inactive: 0.568 | 0.128
14 | CN(C)CCC[C@@]1(c2ccc(F)cc2)OCc2cc(C#N)ccc21 [Escitalopram Oxalate] | 1.07 | inactive: 0.86 | 0.871
15 | OC[C@H]1O[C@@H](Oc2ccc(O)cc2)[C@H](O)[C@@H](O)[C@@H]1O [Arbutin] | 0.995 | inactive: 0.958 | 1.3
16 | COc1ccc2cc([C@H](C)C(=O)O)ccc2c1 [(S)-Naproxen] | 0.902 | inactive: 0.873 | 1.25
17 | CCc1cc(C(N)=S)ccn1 [Ethionamide] | 1.14 | inactive: 1.13 | 0.48
18 | Cc1ccc(C)c(OCCCC(C)(C)C(=O)O)c1 [Gemfibrozil] | 1.03 | inactive: 1.03 | 0.981
19 | Cc1cc2nc3c(=O)[nH]c(=O)nc-3n(C[C@H](O)[C@H](O)[C@H](O)COP(=O)(O)OP(=O)(O)OC[C@H]3O[C@@H](n4cnc5c(N)ncnc54)[C@H](O)[C@@H]3O)c2cc1C [Flavin adenine dinucleotide disodium] | 1.08 | inactive: 0.839 | 0.721
20 | Cc1ccc(C(=O)c2cc(O)c(O)c([N+](=O)[O-])c2)cc1 [Tolcapone] | 0.731 | active: 0.467 | 1.39

Row | SMILES | relative cell viability [1] | relative GAG core protein HA-SDC1 amount per cell number [2] | relative mutant VPS33A R498W amount [3]
21 | Cc1cc(C)cc(OCC2CNC(=O)O2)c1 (centres undefined) [Metaxalone] | 0.949 | inactive: 0.669 | 1.22
22 | Cc1ccccc1C(OCCN(C)C)c1ccccc1 (centres undefined) [Orphenadrine Citrate] | 1.01 | inactive: 0.569 | 0.65
23 | CC(=O)OCC(=O)[C@@]1(O)CC[C@H]2[C@@H]3CCC4=CC(=O)CC[C@]4(C)[C@H]3C(=O)C[C@@]21C [Cortisone acetate] | 1.07 | inactive: 0.969 | 1.39
24 | CC(=O)[C@@]1(O)CC[C@H]2[C@@H]3C[C@H](C)C4=CC(=O)CC[C@]4(C)[C@H]3CC[C@@]21C [Medroxyprogesterone] | 1.02 | inactive: 0.992 | 1.44
25 | Cc1cc2c(s1)Nc1ccccc1N=C2N1CCN(C)CC1 [Olanzapine] | 1.01 | inactive: 0.903 | 0.993
26 | C[C@H](CCC(=O)O)[C@H]1CC[C@H]2[C@@H]3[C@H](O)C[C@@H]4C[C@H](O)CC[C@]4(C)[C@H]3CC[C@]12C [Chenodeoxycholic Acid] | 1.08 | inactive: 0.7 | 1.26
27 | CN(C)c1ccc(O)c2c1C[C@H]1C[C@H]3[C@H](N(C)C)C(=O)C(C(N)=O)=C(O)[C@@]3(O)C(=O)C1=C2O [Minocycline HCl] | 0.611 | inactive: 1.02 | 0.228
28 | O=C(O)[C@H]1O[C@@H](Oc2cc3oc(-c4ccccc4)cc(=O)c3c(O)c2O)[C@H](O)[C@@H](O)[C@@H]1O [Baicalin] | 0.95 | inactive: 0.804 | 1.16
29 | O=C(c1ccc(F)cc1)C1CCN(CCn2c(=O)[nH]c3ccccc3c2=O)CC1 [Ketanserin] | 1.07 | inactive: 0.924 | 1.2
30 | CCCCCCCCCCC[C@@H](C[C@@H]1OC(=O)[C@H]1CCCCCC)OC(=O)[C@H](CC(C)C)NC=O [Orlistat] | 1.13 | inactive: 1.17 | 0.562
31 | CC(=O)N[C@@H](C=O)[C@@H](O)[C@H](O)[C@H](O)CO [N-acetyl-D-Glucosamine] | 0.95 | inactive: 0.852 | 1.5
32 | C[C@@](Cc1ccc(O)c(O)c1)(NN)C(=O)O [Carbidopa] | 1.05 | inactive: 0.79 | 3.43
33 | O=c1c(-c2ccc(O)cc2)coc2cc(O)ccc12 [Daidzein] | 1.08 | inactive: 0.913 | 1.12
34 | C[C@H](CS)C(=O)N1CCC[C@H]1C(=O)O [Captopril] | 1.05 | inactive: 1.25 | 1.16
35 | NCCCNCCCCNCCCN [Spermine] | 0.976 | inactive: 1.08 | 1.44
36 | CNS(=O)(=O)CCc1ccc2[nH]cc(C3CCN(C)CC3)c2c1 [Naratriptan] | 1.05 | inactive: 0.895 | 1.4
37 | CN1CCC[C@H]1c1cccnc1 [Nicotine] | 0.948 | inactive: 0.854 | 1.18
38 | O=C(O)Cc1ccccc1Nc1c(Cl)cccc1Cl [Diclofenac Diethylamine] | 1.06 | inactive: 0.824 | 0.956
39 | Cc1ccc(C(=O)C(C)CN2CCCCC2)cc1 (centres undefined) [Tolperisone HCl] | 0.983 | inactive: 0.568 | 0.649
40 | Cc1ncc(CO)c(CO)c1O [Pyridoxine HCl] | 0.963 | inactive: 0.901 | 1.27

Row | SMILES | relative cell viability [1] | relative GAG core protein HA-SDC1 amount per cell number [2] | relative mutant VPS33A R498W amount [3]
41 | CCN1CCN(C(=O)N[C@@H](C(=O)N[C@@H]2C(=O)N3C(C(=O)O)=C(CSc4nnnn4C)CS[C@H]23)c2ccc(O)cc2)C(=O)C1=O [Cefoperazone] | 1.38 | inactive: 1.36 | 1.12
42 | CC(C)(C)NCC(O)c1ccc(O)c(CO)c1 (centres undefined) [Salbutamol Sulfate] | 1.31 | inactive: 1.37 | 1.05
43 | COc1ccc2cccc(CCNC(C)=O)c2c1 [Agomelatine] | 1.05 | inactive: 0.808 | 0.786
44 | NC(=O)N/N=C/c1ccc([N+](=O)[O-])o1 [Nitrofurazone] | 0.818 | active: 0.285 | 0.316
45 | CCOc1ccc2ccccc2c1C(=O)N[C@@H]1C(=O)N2[C@@H]1SC(C)(C)[C@@H]2C(=O)O [Nafcillin Sodium] | 0.97 | inactive: 1.01 | 1.44
46 | CNC(=C[N+](=O)[O-])NCCSCc1csc(CN(C)C)n1 [Nizatidine] | 1.2 | inactive: 1.27 | 1.5
47 | OC[C@H]1O[C@H](O[C@]2(CCl)O[C@H](CCl)[C@@H](O)[C@@H]2O)[C@H](O)[C@@H](O)[C@H]1Cl [Sucralose] | 1.25 | inactive: 0.696 | 1.02
48 | C[C@H](CCC(=O)O)[C@H]1CC[C@H]2[C@@H]3CC[C@@H]4C[C@H](O)CC[C@]4(C)[C@H]3C[C@H](O)[C@]12C [Deoxycholic acid] | 1.07 | inactive: 0.802 | 1.09
49 | CC[C@H]1[C@@H](O)[C@@H]2[C@H](CC[C@]3(C)[C@@H]([C@H](C)CCC(=O)O)CC[C@@H]23)[C@@]2(C)CC[C@@H](O)C[C@@H]12 [Obeticholic Acid] | 0.686 | active: 0.269 | 0.811
50 | C[C@]12CC[C@H](O)CC1=CC[C@@H]1[C@@H]2CC[C@]2(C)C(n3cnc4ccccc43)=CC[C@@H]12 | 1.34 | inactive: 1.08 | 0.605
51 | C=CCc1cc(OC)c(O)c(C(=O)NCCO)c1 [Alibendol] | 1.04 | inactive: 0.849 | 1.4
52 | CC1=C(C/C=C(\C)CCC[C@H](C)CCC[C@H](C)CCCC(C)C)C(=O)c2ccccc2C1=O [Vitamin K1] | 1 | inactive: 1.06 | 0.683
53 | N=C(N)N [Guanidine HCl] | 0.916 | inactive: 1.15 | 0.953
54 | COC(=O)N/N=C/c1c[n+]([O-])c2ccccc2[n+]1[O-] [Carbadox] | 1.36 | inactive: 1.2 | 0.762
55 | NC12CC3CC(CC(C3)C1)C2 [Amantadine HCl] | 1.05 | inactive: 1.36 | 1.74
56 | O=C(O)CCCc1ccccc1 [Sodium Phenylbutyrate] | 1.04 | inactive: 1.29 | 1.23
57 | CN(C)CC(c1ccc(O)cc1)C1(O)CCCCC1 (centres undefined) [Desvenlafaxine] | 1.05 | inactive: 0.913 | 1.32
58 | CCN1CCC[C@H]1CNC(=O)c1cc(S(N)(=O)=O)ccc1OC [Levosulpiride] | 0.946 | inactive: 1.33 | 1.61
